Test results: EP4545563A1, “ANTIBODIES TARGETING ITGA2 AND ANTIBODY-DRUG […]” (Foreseen Technology (Beijing) Co., Ltd., priority 2022, dated 2024)

Legend:
[1] = system: A431; experiment: ADC cancer cell killing, Cell-Titer-Glo 2.0; type: cell-based, human; details: result in words, summary of Table 9
Method: (§1) Human bile duct cancer cells HuCC-T1 available from Zhejiang MeisenCTCC, human epidermal cancer cells A431 available from Procell Life Science&Technology Co.,Ltd. (Wuhan) and Chinese hamster ovary cells CHO from negative control ATCC were seeded into a 96-well plate at 2500 cells/well. It was then incubated in a 5% CO2 incubator overnight at 37°C. Half of the medium was removed from the cell plate on the next day. A 2x hIgG1 (negative control antibody, provided by Biointron), Vatelizumab, FS002-A1-vc-MMAE, FS002-A15-vc-MMAE, FS002-A36-vc-MMAE, Vatelizumab-ve-MMAE, hIgG1-vcMMAE (negative control ADC, provided by ChemPartner) was prepared with a complete culture medium, and then diluted at a 3-fold gradient with 11 specific concentration points in total. Serial dilutions of the above molecules were added to the appropriate wells, and it was then incubated in a 5% CO2 incubator for 5 days at 37°C. After the incubation, 100 uL of Cell-Titer-Glo 2.0 reagent was added to the 96-well plate. It was then well mixed on a plate shaker for 2 minutes, and finally equilibrated at room temperature for 10 minutes. Readings were taken using a microplate reader. Finally, IC50 was used to compare the biological activity of the ADC against each cell line.

[2] = system: HuCC-T1; experiment: ADC cancer cell killing, Cell-Titer-Glo 2.0; type: cell-based, human; details: result in words, summary of Table 9
Method: as §1

[3] = system: CHO; experiment: ADC cell killing in negative control cells, Cell-Titer-Glo 2.0; type: cell-based, Chinese hamster
Method: as §1

B1: FS002-A15-vc-MMAE: antibody-drug conjugate of antibody FS002-A15 with vc-MMAE (mc-vc-PAB-MMAE) as the linker-payload (conjugate)
heavy: RLQLQESGPGLVKPSQTLSLTCTVSGGSISSGGYYWSWIRQHPGKGLEWIGYIYYSGSTYYNPSLKSRVTISVDTSKNQFSLKLSSVTAADTAVYYCARATIYGYFDYWGQGTLVTVSS[human IgG1 constant region omitted here]
light: EIVLTQSPATLPLSPGERATLSCRASQSVGFYLAWYQQKPGQPPRLLFYDASKRATGIPARFSASGSGTDFTLTISGLEPEDFAVYYCQHRISWPLTFGQGTKVEVKRTVAAPSVFIFPPSDEQLKSGTASVVCLLNNFYPREAKVQWKVDNALQSGNSQESVTEQDSKDSTYSLSSTLTLSKADYEKHKVYACEVTHQGLSSPVTKSFNRGEC
For B1, which “killing effect on A431” value [1] is on record?
Its value is “good killing effect”.

What about the “killing effect on HuCC-T1” value [2] of the same molecule?
Its value is “good killing effect”.

And the IC50 ([3]; negative control cells CHO, incubated 5 days at 37°C)?
The IC50 was over 207 nM.

And the “killing effect on negative control cells CHO” value ([3]; result in words, summary of Table 9)?
The value was “no killing effect”.
